Data on 43 molecules can be found in paper PMC4336329 (PLoS ONE, 2015).

The structures appear in SMILES notation. Screen size: about 310,000 compounds; about 14,000 (4.5%) showed an effect of 50% or more. Effects have a minus sign here. The list shows a part of the results. Where a SMILES comes first, the peptide text is derived from it. The star is where a group is joined. Boc = CC(C)(C)OC(=O)*
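Note: peak tail current of the secondary pulse compared with the same well before compound.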

Chain of human ether-à-go-go-related gene (hERG) potassium channel (Q12809 whole entry, looked up): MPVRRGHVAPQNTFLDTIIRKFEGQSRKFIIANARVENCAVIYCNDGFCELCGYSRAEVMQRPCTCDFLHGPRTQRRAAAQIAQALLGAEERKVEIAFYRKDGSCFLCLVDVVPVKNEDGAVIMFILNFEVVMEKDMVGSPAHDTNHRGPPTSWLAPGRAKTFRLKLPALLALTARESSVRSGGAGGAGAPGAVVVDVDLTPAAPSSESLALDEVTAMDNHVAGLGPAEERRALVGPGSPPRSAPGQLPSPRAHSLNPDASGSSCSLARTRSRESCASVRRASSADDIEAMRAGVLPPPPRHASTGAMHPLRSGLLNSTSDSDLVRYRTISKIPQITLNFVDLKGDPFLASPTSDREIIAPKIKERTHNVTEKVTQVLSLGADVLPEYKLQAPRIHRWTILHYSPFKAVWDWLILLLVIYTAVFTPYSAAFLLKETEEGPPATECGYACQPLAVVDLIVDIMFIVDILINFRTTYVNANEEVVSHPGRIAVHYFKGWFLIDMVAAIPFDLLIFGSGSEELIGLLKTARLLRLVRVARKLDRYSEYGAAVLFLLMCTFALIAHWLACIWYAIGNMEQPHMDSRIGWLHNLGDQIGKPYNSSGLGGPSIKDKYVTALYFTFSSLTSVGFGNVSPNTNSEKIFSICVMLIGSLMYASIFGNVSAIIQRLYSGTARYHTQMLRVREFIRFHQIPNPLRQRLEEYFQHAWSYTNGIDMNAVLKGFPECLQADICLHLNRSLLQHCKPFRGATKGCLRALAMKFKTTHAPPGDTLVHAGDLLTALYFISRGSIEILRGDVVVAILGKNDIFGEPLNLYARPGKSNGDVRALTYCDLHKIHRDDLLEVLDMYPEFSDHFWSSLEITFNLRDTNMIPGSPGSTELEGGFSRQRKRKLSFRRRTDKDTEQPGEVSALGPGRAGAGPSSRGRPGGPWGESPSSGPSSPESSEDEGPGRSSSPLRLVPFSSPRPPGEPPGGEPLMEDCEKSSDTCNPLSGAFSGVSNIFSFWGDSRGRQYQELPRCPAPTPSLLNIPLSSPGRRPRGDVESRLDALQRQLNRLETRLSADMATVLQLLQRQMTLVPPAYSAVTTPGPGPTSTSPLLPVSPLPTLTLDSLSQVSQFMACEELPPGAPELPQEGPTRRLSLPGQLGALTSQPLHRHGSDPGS

This assay has as its target human ether-à-go-go-related gene (hERG) potassium channel (human, UniProt Q12809). Briefly: primary screen, population patch clamp on CHO cells stably expressing hERG.
For the molecule `CCOC(=O)NC1c2ccccc2Oc2ccccc21`, the “hERG current change (%, negative = inhibition) at 10uM” value was -8.04%.

`Nc1nonc1-n1nnc(C(=O)N/N=C/c2ccccc2Br)c1CN1CCCC1`: the “hERG current change (%, negative = inhibition) at 10uM” value is on record as 15.3%.

Take `CCCNC(=S)N1CCC(NC(=O)c2ccc(OC)cc2)CC1`: the “hERG current change (%, negative = inhibition) at 10uM” value was -5.18%.

On to `Cc1ccc(N2C(=O)NC(=O)/C(=C\c3cc(C)n(-c4ccc(C(=O)O)cc4)c3C)C2=O)cc1`, for which the “hERG current change (%, negative = inhibition) at 10uM” value is given as 24.6%.

In the case of `COc1ccc(C(CNC(=O)c2cccc(NC(=O)c3cccs3)c2)N2CCCC2)cc1` (stereo not shown), the “hERG current change (%, negative = inhibition) at 10uM” value is listed as -58.8%.

Consider `CCCCNC(=O)CCNS(=O)(=O)c1ccc(C)cc1`, for which the “hERG current change (%, negative = inhibition) at 10uM” value was -2.03%.

On to `CCOC(=O)c1c(C)[nH]c(C)c1C(=O)COC(=O)c1cc2ccccc2cc1O`, for which the “hERG current change (%, negative = inhibition) at 10uM” value worked out at 11%.

Consider `CCC(C)C(NC(=O)OC(C)(C)C)C(=O)NC(C(=O)N1CCCC1C(N)=O)C(C)CC` (stereo not drawn) (Boc-Ile-Ile-Pro-NH2; configuration not given here), for which the “hERG current change (%, negative = inhibition) at 10uM” value is 9.19%.

Consider `CCOC(=O)Cn1c(=O)oc2cc(S(=O)(=O)Nc3cccc(C)c3)ccc21`, for which the “hERG current change (%, negative = inhibition) at 10uM” value is recorded as -22.5%.

For the molecule `COc1cccc(N(CC(=O)NC2CCCC2)C(=O)Cn2nnc(-c3ccc(C)o3)n2)c1`, the “hERG current change (%, negative = inhibition) at 10uM” value is recorded as -0.0528%.

For `CC(C)(C)c1ccc(OCC(=O)N(Cc2cccs2)C2CCS(=O)(=O)C2)cc1` (stereo not shown), the “hERG current change (%, negative = inhibition) at 10uM” value was -54.2%.

Regarding `Cc1ccc(C(=O)NCCn2cc(SCC(=O)Nc3nnc(C)s3)c3ccccc32)cc1`, the “hERG current change (%, negative = inhibition) at 10uM” value is recorded as -3.05%.

Take `CCc1c(C)nc(N)n2c(SCC(=O)N3CCCc4ccccc43)nnc12`: the “hERG current change (%, negative = inhibition) at 10uM” value is -5.8%.

Regarding `CCOc1ccc(CNc2nc3ccccc3n2C)cc1`, the “hERG current change (%, negative = inhibition) at 10uM” value is -31.4%.

For the molecule `COC(=O)c1cccnc1Oc1ccccc1`, the “hERG current change (%, negative = inhibition) at 10uM” value is 4.12%.

For `CCC(=O)N(C(=O)CC)N1CCN(c2ccncc2S(=O)(=O)N2CCCCC2)CC1`, the “hERG current change (%, negative = inhibition) at 10uM” value was -52.5%.

For `CCN1/C(=C\C=C\C2=[N+](CC)c3ccccc3C2(C)C)C(C)(C)c2ccccc21.[O-][Cl+3]([O-])([O-])[O-]`, the “hERG current change (%, negative = inhibition) at 10uM” value was -96.7%.

For the molecule `CS(=O)(=O)N(CC(=O)Nc1c(F)cccc1F)Cc1ccccc1`, the “hERG current change (%, negative = inhibition) at 10uM” value came out at 10.3%.

Consider `CCOCCCn1c(=O)c(NC(=O)c2ccc(OCC)cc2)c2n(c1=S)CCCCC2`, for which the “hERG current change (%, negative = inhibition) at 10uM” value is reported as -27.8%.

Regarding `CC(=O)Nc1cccc(NC(=O)CSc2nc3c(c(=O)n(C)c(=O)n3C)n2C)c1`, the “hERG current change (%, negative = inhibition) at 10uM” value was -41.9%.

`CCOc1cc(S(=O)(=O)N2CCCCC2)ccc1Cl`: the “hERG current change (%, negative = inhibition) at 10uM” value is reported as -21.3%.

Consider `COc1ccc(S(=O)(=O)N(C)c2ccc(C(=O)N3CCCC3)cc2)cc1OC`, for which the “hERG current change (%, negative = inhibition) at 10uM” value came out at 12.8%.

With `Cc1cc(C(=O)N/N=C/c2cccc([N+](=O)[O-])c2)c(C)o1`, the “hERG current change (%, negative = inhibition) at 10uM” value came to 9.13%.

As for `O=C(COC(=O)/C=C/c1cccc(Cl)c1)NCCC1=CCCCC1`, the “hERG current change (%, negative = inhibition) at 10uM” value is -11.9%.

For `CCOC(=O)CCCCNCc1ccccc1.Cl`, the “hERG current change (%, negative = inhibition) at 10uM” value is reported as -5.76%.

For `CC1(C)CC(=O)c2c(Cc3ccccc3)noc2C1`, the “hERG current change (%, negative = inhibition) at 10uM” value came to 12.1%.

Take `CCOC(=O)C1=C(C)C(c2cccc(Oc3ccccc3)c2)NC(=S)N1` (stereo not shown): the “hERG current change (%, negative = inhibition) at 10uM” value stood at 0.199%.

Turning to `CCOC(=O)c1cc2sccc2n1CC(=O)N1c2ccccc2CC1C` (stereo not shown), the “hERG current change (%, negative = inhibition) at 10uM” value is listed as -0.785%.

As to `Nc1nonc1-c1nc2ccccc2n1Cc1ccc(Cl)cc1`, the “hERG current change (%, negative = inhibition) at 10uM” value came to 0.205%.

For `O=C(Nc1ccc(F)cc1F)N1CCCN(CCOc2ccccc2)CC1`, the “hERG current change (%, negative = inhibition) at 10uM” value is given as -45.2%.

With `CCOC(=O)CC1Sc2ccccc2NC1=S` (stereo not shown), the “hERG current change (%, negative = inhibition) at 10uM” value is -0.638%.

For `Cc1c(Cl)ccc(S(=O)(=O)Nc2cccnc2)c1Cl`, the “hERG current change (%, negative = inhibition) at 10uM” value turned out to be 13.6%.

With `COC(=O)CCc1nc2cc(Cl)ccc2n(Cc2ccccc2)c1=O`, the “hERG current change (%, negative = inhibition) at 10uM” value is given as -23.1%.

For `CCOC(=O)N1CCN(C(=O)C2COc3ccccc3O2)CC1` (stereo not shown), the “hERG current change (%, negative = inhibition) at 10uM” value was -2.28%.

Turning to `Cc1ccc(C(=O)c2ccccc2C(=O)OCC(=O)NCC2CCCO2)cc1` (stereo not shown), the “hERG current change (%, negative = inhibition) at 10uM” value was 18.6%.

Regarding `O=C(c1ccc(C(F)(F)F)cc1)N1CCC(=O)N(C(CO)Cc2ccccc2)CC1` (stereo not shown), the “hERG current change (%, negative = inhibition) at 10uM” value is on record as -4.21%.

For `Cc1ccc(-c2n[nH]c(=S)n2/N=C/c2ccncc2)cc1`, the “hERG current change (%, negative = inhibition) at 10uM” value turned out to be 17.5%.

For `C[C@@H]1CC[C@]2(O[C@@H](CCO)C[C@@H](O)[C@@H]2O)O1`, the “hERG current change (%, negative = inhibition) at 10uM” value is given as 23.3%.

As for `O=C(c1ccc2c(c1)OCO2)N1CCN(C(=O)c2ccco2)CC1`, the “hERG current change (%, negative = inhibition) at 10uM” value was found to be 7.36%.

Consider `COc1ccccc1NC(=O)C(C)NS(=O)(=O)c1ccc(F)cc1` (stereo not shown), for which the “hERG current change (%, negative = inhibition) at 10uM” value was -0.796%.

Consider `CCOc1ccccc1NC(C)C(=O)Nc1cc(C(F)(F)F)ccc1N1CCOCC1` (stereo not shown), for which the “hERG current change (%, negative = inhibition) at 10uM” value is reported as -6.23%.

Turning to `O=C(NCc1ccc(F)cc1)C(c1cccs1)N(C(=O)c1csnn1)C1CC1` (stereo not shown), the “hERG current change (%, negative = inhibition) at 10uM” value is reported as -20.3%.

Regarding `O=C(Cn1cnc(S(=O)(=O)N2CCCCC2)c1)Nc1ccc(OC(F)(F)F)cc1`, the “hERG current change (%, negative = inhibition) at 10uM” value was 22%.
